US8415154B2, “Compositions and methods for producing adaptive regulatory T cells” (Trustees of Dartmouth College, priority 2007, dated 2013)
Several values for one entry are separate records, joined by “and”; a condition that tells them apart may be missing. Equal values may be shown once.

System: CD4+Foxp3− T cells
Assay: TGFβ1-driven conversion of CD4+Foxp3− T cells to Foxp3+ (Foxp3/GFP) in vitro
From the text: Cell Preparation. B cells and dendritic cells (DCs) were harvested from the spleens, and CD4+FoxP3− cells were isolated from spleens, peripheral and mesenteric lymph nodes. For B cell and T cells, single-cell suspensions were generated by crushing organs by sterile slides, and purified using by positive selection using either αCD4 or αCD19 labeled magnetic beads (Miltenyi Biotech, Auburn, Calif.). T cells were further purified by FACS-sorting of the CD4FoxP3/GFP− fraction, with purity always exceeding 99% (BD FACSARIA; BD Biosciences, San Jose, Calif.). For CD11c+ positive selection, spleens were harvested and incubated at 37° C. in RPMI with 50 μg/ml DNase I (Sigma, St. Louis, Mo.) and 250 μg/ml LIBERASE (Roche, Indianapolis, Ind.) for 1 hour and pushed through a 100 μM filter to create a single-cell suspension, and then purified using αCD11c magnetic beads (Miltenyi Biotech). Cell preps always exceeded 98% in purity. For small intestine lamina propria lymphocyte preparations, intestines were removed and Peyer's Patches were excised and used for further analysis. The intestines were washed with cold phosphate-buffered saline (PBS), split open, and cut into 1-cm pieces. After a 30-minute incubation in R0 to release the intestinal epithelial lymphocytes (IELs), intestines were vortexed, filtered using a 100 μM filter and washed extensively. Intestines were then digested for 2 hours using 50 μg/ml DNase I (Sigma) and 250 μg/ml LIBERASE (Roche), whereupon they were pushed through a 100 μM filter. The cellular suspension was centrifuged and suspended in 40% PERCOLL, and overlaid on 60% PERCOLL. The PERCOLL gradient was spun at 400 g at room temperature for 25 minutes with no brake, with the buffy (lymphocyte) coat removed for further use. As indicated, APCs were pulsed with ISQ peptide at 10 μg/ml for 1 hour in c-RPMI in six-well plates at a concentration of 10×10^6 cells/ml, and were then washed, counted, and used.
Cell Culture Reagents. […]

SMILES: CC1=C(/C=C/C(C)=C/C=C/C(C)=C/C(=O)O)C(C)(C)CCC1 [retinoic acid, all-trans retinoic acid]
- total number of TGFβ1-dependent Foxp3+ cells (five days of culture, high, low and no co-stimulation): greatly enhanced the total number of TGFβ1-dependent Foxp3+ cells
- conversion rate of CD4+FoxP3− to CD4+FoxP3+ T cells (five days, plate-bound αCD3/αCD28 with TGFβ1, IL-2 and retinoic acid): ~100% and > 90%
- conversion in co-stimulation assay (plate-bound αCD3 10 μg/ml, titrated αCD28, IL-2 and TGFβ1): enhanced conversion across all concentrations of αCD28
